Counter-ions that a name gives are not always drawn. The list shows a part of the results. Repeats are few or missing, and single values can be far off.
What follows are compounds tested on KCNR (assay: area under viability curve (10 nM-1 µM), viability relative to solvent or trametinib-only control (AUC (arbitrary, % viability x concentration range)); higher = less growth inhibition (more viable cells)). Settings: 72 h compound exposure (96 h after seeding) h; trametinib co-treatment 0 µM.
Experimental: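 Four neuroblastoma cell lines (KCNR, SKNBE, SJNB8, SKNAS) were seeded in 384-well plates. At 24 h, 1 µM trametinib or DMSO was added, followed by library compounds at 10 nM, 100 nM and 1 µM. Viability was read by MTT at 96 h and normalised to solvent-treated cells (DMSO arm) or to trametinib-only cells (trametinib arm). The area under the 3-point viability curve was computed in GraphPad Prism; units are as given (approx. 100000 = no effect).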
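Also: KCNR is a neuroblastoma cell line carrying an ALK mutation, in this DMSO arm without trametinib, viability was normalised to solvent-treated cells.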

Row | SMILES | area under viability curve
1 | O=C(CCCN1C(=O)c2cccc3cccc(c23)C1=O)NO [Nullscript] | 99300
2 | N#CCNC(=O)c1ccc(-c2ccnc(Nc3ccc(N4CCOCC4)cc3)n2)cc1 [Momelotinib] | 91500
3 | Nc1ncn([C@H]2C[C@H](O)[C@@H](CO)O2)c(=O)n1 [Decitabine] | 76100
4 | CC(C)(C)OC(=O)Nc1ccc(-c2cc(C(=O)NCCCCCCC(=O)NO)no2)cc1 | 102000
5 | COCCNCc1ccc(-c2cc3nccc(Oc4ccc(NC(=S)NC(=O)Cc5ccc(F)cc5)cc4F)c3s2)nc1 [Glesatinib] | 101000
6 | CC(C)C[C@H](NC(=O)[C@H](Cc1ccccc1)NC(=O)c1cnccn1)B(O)O [Bortezomib] | 2260
7 | CC(C)C[C@H](NC(=O)[C@@H](Cc1c[nH]c2ccccc12)NC(=O)[C@H](Cc1ccc(O)cc1)NC(=O)[C@H](CO)NC(=O)[C@H](Cc1c[nH]c2ccccc12)NC(=O)[C@H](Cc1cnc[nH]1)NC(=O)[C@@H]1CCC(=O)N1)C(=O)N[C@@H](CCCN=C(N)N)C(=O)N1CCC[C@H]1C(=O)NCC(N)=O [Triptorelin acetate] | 105000
8 | Cc1ccc(NC(=O)c2ccc(CN3CCN(C)CC3)cc2)cc1Nc1nc(-c2cccnc2)cs1 [Masitinib] | 104000
9 | CC[C@]1(O)C[C@@H]2CN(CCc3c([nH]c4ccccc34)[C@@](C(=O)OC)(c3cc4c(cc3OC)N(C)[C@H]3[C@@](O)(C(N)=O)[C@H](O)[C@]5(CC)C=CCN6CC[C@]43[C@@H]65)C2)C1 [Vindesine sulfate] | 12800
10 | COc1cccc2c1C(=O)c1c(O)c3c(c(O)c1C2=O)C[C@@](O)(C(C)=O)C[C@@H]3O[C@H]1C[C@H](NC(=O)OCc2ccc(O[C@@H]3O[C@H](CO)[C@H](O)[C@H](O)[C@H]3O)c([N+](=O)[O-])c2)[C@H](O)[C@H](C)O1 | 50400
11 | CN1CCN(CCOc2cc(OC3CCOCC3)c3c(Nc4c(Cl)ccc5c4OCO5)ncnc3c2)CC1 [Saracatinib] | 91800
12 | Cc1nc(N)sc1-c1ccnc(Nc2ccc(N3CCOCC3)cc2)n1 | 77400
13 | Nc1nccc(Oc2ccc(NC(=O)c3c[nH]cc(-c4ccc(F)cc4)c3=O)cc2F)c1Cl | 104000
14 | CCN(CC)CCNC(=O)c1c(C)[nH]c(/C=C2\C(=O)Nc3ccc(F)cc32)c1C [Sunitinib malate] | 89300
15 | O=c1[nH]c(=O)n(C2CCCO2)cc1F (stereo not given) [Tegafur] | 104000
16 | CCc1c2c(nc3ccc(O)cc13)-c1cc3c(c(=O)n1C2)COC(=O)[C@]3(O)CC [7-Ethyl-10-hydroxycamptothecin] | 3190
17 | Nc1nc(Cl)nc2c1ncn2[C@H]1C[C@H](O)[C@@H](CO)O1 [Cladribine] | 79600
18 | Clc1ccc(Nc2nnc(Cc3ccncc3)c3ccccc23)cc1 [Vatalanib HCl] | 101000
19 | Cc1cc(NC(=O)Nc2ccc(N(C)C)cc2)c2cc(F)cc(F)c2n1 | 101000
20 | CC(=O)[O-].CC(=O)[O-].N.NC1CCCCC1.[Cl-].[Cl-].[Pt+4] [Satraplatin] | 51800

Same assay, conditions: 72 h compound exposure (96 h after seeding) h; trametinib co-treatment 1 µM

Row | SMILES | area under viability curve
21 | O=C(CCCN1C(=O)c2cccc3cccc(c23)C1=O)NO [Nullscript] | 102000
22 | N#CCNC(=O)c1ccc(-c2ccnc(Nc3ccc(N4CCOCC4)cc3)n2)cc1 [Momelotinib] | 97400
23 | Nc1ncn([C@H]2C[C@H](O)[C@@H](CO)O2)c(=O)n1 [Decitabine] | 81000
24 | CC(C)(C)OC(=O)Nc1ccc(-c2cc(C(=O)NCCCCCCC(=O)NO)no2)cc1 | 101000
25 | COCCNCc1ccc(-c2cc3nccc(Oc4ccc(NC(=S)NC(=O)Cc5ccc(F)cc5)cc4F)c3s2)nc1 [Glesatinib] | 102000
26 | CC(C)C[C@H](NC(=O)[C@H](Cc1ccccc1)NC(=O)c1cnccn1)B(O)O [Bortezomib] | 1830
27 | CC(C)C[C@H](NC(=O)[C@@H](Cc1c[nH]c2ccccc12)NC(=O)[C@H](Cc1ccc(O)cc1)NC(=O)[C@H](CO)NC(=O)[C@H](Cc1c[nH]c2ccccc12)NC(=O)[C@H](Cc1cnc[nH]1)NC(=O)[C@@H]1CCC(=O)N1)C(=O)N[C@@H](CCCN=C(N)N)C(=O)N1CCC[C@H]1C(=O)NCC(N)=O [Triptorelin acetate] | 97500
28 | Cc1ccc(NC(=O)c2ccc(CN3CCN(C)CC3)cc2)cc1Nc1nc(-c2cccnc2)cs1 [Masitinib] | 106000
29 | CC[C@]1(O)C[C@@H]2CN(CCc3c([nH]c4ccccc34)[C@@](C(=O)OC)(c3cc4c(cc3OC)N(C)[C@H]3[C@@](O)(C(N)=O)[C@H](O)[C@]5(CC)C=CCN6CC[C@]43[C@@H]65)C2)C1 [Vindesine sulfate] | 12600
30 | COc1cccc2c1C(=O)c1c(O)c3c(c(O)c1C2=O)C[C@@](O)(C(C)=O)C[C@@H]3O[C@H]1C[C@H](NC(=O)OCc2ccc(O[C@@H]3O[C@H](CO)[C@H](O)[C@H](O)[C@H]3O)c([N+](=O)[O-])c2)[C@H](O)[C@H](C)O1 | 24400
31 | CN1CCN(CCOc2cc(OC3CCOCC3)c3c(Nc4c(Cl)ccc5c4OCO5)ncnc3c2)CC1 [Saracatinib] | 96900
32 | Cc1nc(N)sc1-c1ccnc(Nc2ccc(N3CCOCC3)cc2)n1 | 76200
33 | Nc1nccc(Oc2ccc(NC(=O)c3c[nH]cc(-c4ccc(F)cc4)c3=O)cc2F)c1Cl | 109000
34 | CCN(CC)CCNC(=O)c1c(C)[nH]c(/C=C2\C(=O)Nc3ccc(F)cc32)c1C [Sunitinib malate] | 88200
35 | O=c1[nH]c(=O)n(C2CCCO2)cc1F (stereo not given) [Tegafur] | 105000
36 | CCc1c2c(nc3ccc(O)cc13)-c1cc3c(c(=O)n1C2)COC(=O)[C@]3(O)CC [7-Ethyl-10-hydroxycamptothecin] | 2880
37 | Nc1nc(Cl)nc2c1ncn2[C@H]1C[C@H](O)[C@@H](CO)O1 [Cladribine] | 80700
38 | Clc1ccc(Nc2nnc(Cc3ccncc3)c3ccccc23)cc1 [Vatalanib HCl] | 99900
39 | Cc1cc(NC(=O)Nc2ccc(N(C)C)cc2)c2cc(F)cc(F)c2n1 | 96300
40 | CC(=O)[O-].CC(=O)[O-].N.NC1CCCCC1.[Cl-].[Cl-].[Pt+4] [Satraplatin] | 43200
